Data published in article PMC12136788.
The list shows a part of the results.

B1: ENSG00000107863:be:win_1851|CDS|ENSG00000107863|bound_else_gene|NA|bound_elsewhere_windowed (ssRNA)
RNA: GGGAGUUCUACAGUCCGACGAUCUCUUGUGAAAGUCCGAAGUAAUUCUCUGAAAGCUCCUUCCACGCAUGUCACAAAACCAUCAUUUAGCCAGAAAUCAUUUGUUUCUAUCAAAGACCAAAGACCAGUAAAUCACUUGCAUCACAACAGAGGAUUGAGCAUCA
B2: chr3:197282668:197282805:-|CDS|ENSG00000075711|msi1|total|mutant (ssRNA)
RNA: GGGAGUUCUACAGUCCGACGAUCUGGGAGAUUUCCAGCCUUCCAAGCUCUACUGUGACUUCAGAGACACUGCCAAGCAGCCUCCGCCCCCGUGCCGAGGUGAGAUAAAAAAUGUGUUCUGAAGCUGUUUUUUGGUGAUCAAUUCAACAGAGGAUUGAGCAUCA
B3: chr3:170392585:170392686:+|3pUTR|ENSG00000136603|msi1|total|mutant (ssRNA)
RNA: GGGAGUUCUACAGUCCGACGAUCUACAUUUUCCAAAUGAAUGAAAAUGUAUGUUUCUUUGUACUUUUUUAAAAAAAUCAGCUCCGUAACAAUACUAUAUGGUUUCAACCCGCCGGUAAUCUGCUUAUAUUUCUAAUGCAAACUCAACAGAGGAUUGAGCAUCA
B4: chr11:18297563:18297669:-|CDS|ENSG00000110756|unk|FALSE|unique (ssRNA)
RNA: GGGAGUUCUACAGUCCGACGAUCGAUCUAAUUUCUCAACUGGAAGAAUUGAUCUUAAAAUUUGAACCUUUGGAUUCAGCUUGUAGCAGUAGAAGAAGCUCCAUUUCAUCACAUGUAAGUAUUCUCACCUUUAAAGGAUUUUGUCAACAGAGGAUUGAGCAUCA
B5: chr4:76435395:76435496:+|5pUTR|ENSG00000138771|msi1|total|mutant (ssRNA)
RNA: GGGAGUUCUACAGUCCGACGAUCUUUUCUCUCCUAAGAAACAAACUAUGAACUGAUUGUUGAAAAAAAGAAGUAAAAAGUUUCCGCACAGCUUCUCUGUCUCUUCGGGACAAGUCCGAAAAUUCUGAAGUGAGCCGAAGCAUACAACAGAGGAUUGAGCAUCA
B6: ENSG00000136451:be:win_4101|3pUTR|ENSG00000136451|bound_else_gene|NA|bound_elsewhere_windowed (ssRNA)
RNA: GGGAGUUCUACAGUCCGACGAUCGUCUUGGAACUGGAAUUGAGUUUCGAUGUUGAUGAACUGAUUCAACCAGGUGUUGAAGGCACGACAGCCACUGCUCUACGAAAAGGCAGAGUACGUUUUUCCCUUCUGGUUGUAACCUGGCAACAGAGGAUUGAGCAUCA
B7: chr1:150220393:150220494:-|3pUTR|ENSG00000143401|msi1_unk|FALSE|overlapping (ssRNA)
RNA: GGGAGUUCUACAGUCCGACGAUCAUUGUAUGUAGAGAAAAAUUUUCAUUGACUCCCAUUGUGGAAUUCCCUAGCAAUUUAUUUAGACUUAAUUUUUUAAAUUCAAGCUUACUGUAUUAGUCAUUUUUAGCCCAUAAUUAAAACCAACAGAGGAUUGAGCAUCA
B8: chr2:182777146:182777247:+|3pUTR|ENSG00000077232|msi1|total|mutant (ssRNA)
RNA: GGGAGUUCUACAGUCCGACGAUCUGAAGAUGAAGAAAAAGUUUAAAAGAAAUUCUGACAGAUGACAUCAGAAGACACCUAUUCCGAAUGUUACAUUUAUGAUGGGAAUGAAUGAACAUUAUCUCCGACUUGCAGUUGUACUGCCAACAGAGGAUUGAGCAUCA
B9: chr11:59829272:59829545:-|three_prime_utr|ENSG00000134812|control|control|control (ssRNA)
RNA: GGGAGUUCUACAGUCCGACGAUCAAAAAGCGAAUGCCUGUGAUGCUACCAUAUUCCUGGUAAAAACAUGGAGAACCACUAUGUAGAAUAAAAAUGCAAAGUUCACUGGAGUCUCAACAUCUAUGACUCAUGAAAAUAAAAUUUCAACAGAGGAUUGAGCAUCA
B10: ENSG00000139428:stop:overlap|stop_codon|ENSG00000139428|stop_codon|NA|stop_codon (ssRNA)
RNA: GGGAGUUCUACAGUCCGACGAUCUAUUACUAUUCUUAACACUUACCUGUUCCUGGCUACCAUUUCUCCAUGGCGGGCCUGACUAGGUUUGCUCUGGAAUUAGUCACAGAAAAGGGCCAUACAUUUGCCGAAGAGCUUCAGAAACAACAGAGGAUUGAGCAUCA
B11: chr22:35662008:35662068:+|3pUTR|ENSG00000221963|msi1_unk|total|mutant (ssRNA)
RNA: GGGAGUUCUACAGUCCGACGAUCUGAGCAACUUUUAAUUAUUCUCCUGUCCUGCAAUAUGAGUUAAUCUUCUCUGAUCGAUGCCGAUUCCAGGAAGGGGUGUCCAGGACAAUUACCUUCCUUCUGGAGAAACUUCCCUUAAUCCAACAGAGGAUUGAGCAUCA
B12: chr1:15430058:15430159:+|3pUTR|ENSG00000142634|msi1|total|mutant (ssRNA)
RNA: GGGAGUUCUACAGUCCGACGAUCCCUGGAAGCUACGCGGACUUGCAGAGGUUUUAUUUUUUGGCCUCCGAAUCUGCAGAAAUCCGGAGGCACCGAGCCCAGCGCAGCAGCCUCGGACCCGGAUUGCGUUUGCCUCCGCGGAUACAACAGAGGAUUGAGCAUCA
B13: chr1:109313209:109313310:-|3pUTR|ENSG00000134243|msi1|FALSE|unique (ssRNA)
RNA: GGGAGUUCUACAGUCCGACGAUCCAGGGCAAUAUUUUUAACUUGGGGCAGGAAGAAGGGAGCAGCAGAGAAUUGACUAGAUAUAGCACCUAUUAAAAGAGAACUCUUGCUUCUUCUGAGAUUUUUCAAGCUGUGCUUUGUGUGCAACAGAGGAUUGAGCAUCA
B14: chr6:125889563:125889680:+|CDS|ENSG00000111912|unk|FALSE|unique (ssRNA)
RNA: GGGAGUUCUACAGUCCGACGAUCCAAGCAGUCUGGUUCGCCAGAAAGCCGAGUAGAAAACACACUGAACAUACAUGAAGAUUUAGAUAAAGUUAAACUCAUUGAAUAUUACCUGACUAAGAACAAAGAAGGGCCACAGGUAUCCAACAGAGGAUUGAGCAUCA

biological target: MSI1 full-length (mouse, UniProt Q61474 1-362); experiment: nsRBNS (natural sequence RNA bind-n-seq); RBNS binding buffer (assumed for nsRBNS): 25 mM Tris pH 7.5, 150 mM KCl, 3 mM MgCl2, 0.01% Triton X-100, 500 ug/ml BSA, 20 U/ml SUPERase-In, 4 C; UNK is unkempt and MSI1 is Musashi-1; names of the RNAs are library labels; protein concentration not given here; high values mean tight binding
Sequence of UniProt Q61474 (Q61474 whole entry): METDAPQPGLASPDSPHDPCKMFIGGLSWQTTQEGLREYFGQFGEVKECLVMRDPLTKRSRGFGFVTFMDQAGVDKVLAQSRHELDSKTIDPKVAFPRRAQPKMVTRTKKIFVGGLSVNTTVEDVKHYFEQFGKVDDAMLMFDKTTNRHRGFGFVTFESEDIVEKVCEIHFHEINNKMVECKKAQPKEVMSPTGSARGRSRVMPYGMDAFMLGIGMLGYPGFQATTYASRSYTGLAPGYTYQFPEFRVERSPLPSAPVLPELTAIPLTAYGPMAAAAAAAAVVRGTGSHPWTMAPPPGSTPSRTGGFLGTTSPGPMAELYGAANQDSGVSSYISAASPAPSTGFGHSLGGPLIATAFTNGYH

Row | Binder | binding signal
1 | B1 | 1.64 enrichment R
2 | B2 | 0.329 enrichment R
3 | B3 | 0.822 enrichment R
4 | B4 | 2.3 enrichment R
5 | B5 | 0.234 enrichment R
6 | B6 | 0.402 enrichment R
7 | B7 | 61.8 enrichment R
8 | B8 | 0.289 enrichment R
9 | B9 | 0.42 enrichment R
10 | B10 | 18.8 enrichment R
11 | B11 | 0.383 enrichment R
12 | B12 | 0.342 enrichment R
13 | B13 | 1.37 enrichment R
14 | B14 | 2.02 enrichment R
